Screen size: about 360,000 compounds; about 740 (0.21%) were called active. The inconclusive results got no clear call from the source; some entries with a clear call stand among them for comparison. Calls follow the shape of the dose curve; as a rule, active = well fitted inhibition curve with a large enough effect; inconclusive = small, poorly fitted or top-dose-only effect; inactive = no such curve, though single readings can be large or run the other way. No potency is given beside an inconclusive call; the fits are too rough.
test system: Plasmodium falciparum AMA1 (3D7) - RON2 peptide interaction; experiment: qHTS for Inhibitors of AMA1-RON; Towards Development of Antimalarial Drug Lead: Primary Screen; settings: AlphaScreen AMA1-biotinylated RON2 peptide binding; activity change, negative = inhibition: at 58.2 µM (top of the series) unless noted; also: nearly all actives have a fitted effect of over 45% in size;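 as to activity change, negative = inhibition: 0% = vehicle wells and -100% = peptide control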
Summary of the method: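 AMA1 (3D7) with his tag at 25 nM final met compounds first, then biotinylated RON2 peptide at 25 nM; detection used donor plus acceptor beads, 10 µg/mL apiece, read by AlphaScreen after 30 min at room temperature.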
Potency is read from the fitted curve at half-maximal effect; tags tell the direction and shape of the fitted curve.

SMILES | Potency | activity change, negative = inhibition
N#Cc1nc(COc2ccc(Br)cc2)oc1N1CCCCCC1 | inconclusive [inhibitor, partial curve] | –
CCCCCCCCNC(=O)c1cnsn1 | inconclusive [inhibitor, full curve, poor fit] | –
CCNC(=O)c1ccccc1SCc1ccccc1 | inconclusive [inhibitor, full curve, poor fit] | –
COc1ccc(NCC(=O)N/N=C/c2c(C)nn(Cc3ccccc3)c2Cl)cc1 | – | inactive: -5.05%
CCN(CCNC(=O)C1CCN(Cc2nc(-c3cccc(Cl)c3)oc2C)CC1)c1ccccc1 | inconclusive [inhibitor, partial curve] | –
Cc1cccc(OCc2n[nH]c(=S)o2)c1C | – | inactive: 3.5%
c1ccc(-n2cnc3cc(NCc4ccccn4)ccc32)cc1 | inconclusive [inhibitor, single point] | –
CC(=O)N1CCN(c2ccc(NCc3ccc4c(c3)OCO4)cc2)CC1 | – | inactive: 0.524%
COc1ccc(NC(=O)C2CCN(C(=O)Cc3ccccc3)CC2)c(OC)c1 | inconclusive [inhibitor, partial curve] | –
O=C(CSCc1ccco1)c1cccs1 | – | inactive: -5.78%
N#Cc1nc(-c2ccccc2)oc1N1CCN(C(=O)c2ccco2)CC1 | inconclusive [inhibitor, partial curve] | –
Cc1ccc(S(=O)(=O)N2CCN(C(C)CC(=O)O)CC2)cc1 (stereo not drawn) | inconclusive [inhibitor, partial curve] | –
Cc1cc(-c2ccc(C)c(S(=O)(=O)NCC3CCN(Cc4ccc(F)cc4)CC3)c2)on1 | – | inactive: 0%
O=C(Cc1ccc(Br)cc1)N1CCN(Cc2ccccc2)CC1 | – | inactive: 29.7%
O=C(CCc1c[nH]c2ccccc12)NCc1cccc(Cl)c1 | – | inactive: -9.34%
Cc1ccc(S(=O)(=O)n2ccc(OC(=O)c3cccs3)n2)cc1 | – | inactive: 0.492%
Cc1c(C(=O)N/N=C/c2cccnc2)nnn1-c1nonc1N | – | inactive: 3.39%
CC(C)(C)NS(=O)(=O)c1ccc(CCC(=O)NCc2ccc3c(c2)OCO3)cc1 | inconclusive [inhibitor, full curve] | –
Cc1cccc(Nc2nc(N)nc(CSC(=S)N3CCOCC3)n2)c1 | – | inactive: -18%
O=C(CCCSc1ccccc1)Nc1nc(-c2ccco2)c(-c2ccco2)s1 | inconclusive [inhibitor, single point] | –
CCN(CC)CCCNC(=O)C1CCN(C(=O)c2cc3sccc3n2Cc2ccc(F)cc2)CC1 | inconclusive [inhibitor, single point] | –
CCCC(=O)c1cc(-c2nc3ccccc3n2C)n(C)c1 | – | inactive: -7.22%
CCOc1ccc(CCNC(=O)Cc2nn[nH]n2)cc1OCC | – | inactive: -4.02%
Cc1ccc2c(c1)C(=O)C(=O)N2Cc1ccc(Cl)cc1 | inconclusive [inhibitor, single point] | –
O=P(OC1CCCCC1)(OC1CCCCC1)C(Nc1ccccc1)c1cccnc1 (stereo not drawn) | inconclusive [inhibitor, single point] | –

SMILES | Potency | activity change, negative = inhibition
COc1cc(CNCc2cc(OC)c(OC)c(OC)c2)cc(OC)c1 | inconclusive [inhibitor, partial curve] | –
O=C(CNC(=O)c1ccccc1Br)N/N=C\c1cc([N+](=O)[O-])cc(Br)c1O | inconclusive [inhibitor, partial curve] | –
Brc1ccccc1OCCCn1cnc2ccccc21 | inconclusive [inhibitor, full curve] | –
O=[N+]([O-])c1ccccc1Nc1ccccc1 | active: 10 µM | –
CC(=O)OC[C@@H]1CN(Cc2ccccc2)C[C@H](n2cnc3c(N4CCN(c5ccccc5)CC4)ncnc32)O1 | inconclusive [inhibitor, partial curve] | –
Cc1ccc(C(=O)c2c(NC(=O)c3cccnc3)sc3c2CCCC3)cc1 | inconclusive [inhibitor, partial curve] | –
CCOC(=O)N1CCC(N2CCN(S(=O)(=O)c3ccc([N+](=O)[O-])cc3)CC2)CC1 | inconclusive [inhibitor, single point] | –
O=C(Nc1ccc(Cl)cc1)Nc1ccc2c(c1)N1CCN=C1S2 | inconclusive [inhibitor, single point] | –
CSc1ccccc1OCc1cc(C(=O)NCCN2CCCC(O)C2)no1 (stereo not drawn) | – | inactive: -12.5%
CCCCOc1ccc(C(=O)C(CN2CCOCC2)c2ccccc2)cc1 (stereo not drawn) | – | inactive: -14.6%
CC(C)(C)c1cc(Cl)ccc1OCCOCCN1CCCC1 | inconclusive [inhibitor, single point] | –
CCCCc1nc2cc(C(=O)N3CCC[C@H]3CO)ccc2o1 | – | inactive: 2.93%
COCCn1nnnc1SCC(=O)N1CCCCC1 | inconclusive [inhibitor, partial curve] | –
CCc1ccc(CN(C)CCc2ccccn2)cc1 | inconclusive [inhibitor, single point] | –
Cc1cccc2nc(-c3ccco3)c(Nc3ccc4c(c3)OCO4)n12 | inconclusive [inhibitor, single point] | –
CCCN(CCC)CCOc1cc(C)ccc1C(C)C | inconclusive [inhibitor, single point] | –
COCc1cc(=O)n2c([nH]c3ccccc32)c1C#N | – | inactive: 8.93%
CCc1nc2ccc(C(=O)NCCc3ccccn3)cn2c1N(C)Cc1ccc(N(C)C)cc1 | inconclusive [inhibitor, single point] | –
CCN1CCN(c2cc(N3CCc4ccccc4C3)c(F)cc2[N+](=O)[O-])CC1 | inconclusive [inhibitor, partial curve] | –
S=C(NNc1cccc(Cl)c1)NC1CCCCC1 | active: 6.31 µM | –
COC(=O)CCC(=O)OC1(C)C(=O)C=C2C=C3CCCN3C=C2C1=O (stereo not drawn) | inconclusive [inhibitor, partial curve] | –
CC(=O)c1cccc(OCC(O)CN2CCN(S(=O)(=O)c3c(F)cccc3F)CC2)c1 (stereo not drawn) | inconclusive [inhibitor, single point] | –
CCc1c(C(=O)OCc2ccccc2)[nH]c(C)c1C | inconclusive [inhibitor, partial curve] | –
COc1cc(C(=O)Nc2ccc(Nc3ccccc3)cc2)cc(OC)c1OC | inconclusive [inhibitor, single point] | –
O=C(CSc1ncnc2sc3c(c12)CCCC3)c1ccccc1 | – | inactive: 17.9%

SMILES | Potency | activity change, negative = inhibition
O=C(O)Cc1ccc(N=Nc2c(O)c(C(=O)O)cc3ccccc23)cc1 | inconclusive [inhibitor, single point] | –
O=C1/C(=C/C=C/c2ccco2)SC(=S)N1NS(=O)(=O)c1ccccc1 | inconclusive [inhibitor, partial curve] | –
O=C(Nc1ccc2oc(-c3ccccc3)nc2c1)c1cccs1 | – | inactive: 2.42%
COc1ccc(N2CCN(C(=O)c3ccc(C)cc3)CC2)c([N+](=O)[O-])c1 | inconclusive [inhibitor, partial curve] | –
COC(=O)C1=C(C(=O)OC)[C@@H]2N(Cc3ccccc3)c3ccccc3[C@@]23C[C@@H](C(=O)OC)N(C(=O)C2CCC2)C3=N1 | – | inactive: 1.17%
Cc1ccc(C(=O)Nn2cnc3scc(-c4cccs4)c3c2=O)c(O)c1 | inconclusive [inhibitor, single point] | –
C=CCOc1ccccc1CNc1ccccc1C | inconclusive [inhibitor, single point] | –
COc1ccc(CCNC(=O)C(=O)NCC2OCCN2S(=O)(=O)c2ccc(OC)c(C)c2)cc1 (stereo not drawn) | – | inactive: 9.2%
COc1cccc(C(=O)NC(=S)Nc2ccc(N(C)C)cc2)c1 | inconclusive [inhibitor, single point] | –
Cc1cc(C)c(NC(=O)CS(=O)CC(=O)NC2CCCc3ccccc32)c(C)c1 (stereo not drawn) | inconclusive [inhibitor, partial curve, poor fit] | –
Cc1ccc(NC2=C(NCCO)C(=O)c3ccccc3C2=O)cc1 | inconclusive [inhibitor, partial curve] | –
CCOc1ccc2c(c1)-c1c(ssc1=S)C(C)(C)N2 | active: 18.9 µM | –
CCN(CC)C(=O)CSc1n[nH]c(=O)n1CCc1ccccc1 | inconclusive [inhibitor, partial curve] | –
COc1ccc(S(=O)(=O)N(C)CC(=O)NCc2ccccc2)cc1OC | – | inactive: 17.8%
CCO/C(C)=N/n1c2nc3ccccc3nc2c2c(=O)n(CC(C)C)c(C)nc21 | – | inactive: -10%
CCOC(=O)C1CCN(Cc2ccc(F)c(Br)c2)CC1 | inconclusive [inhibitor, partial curve] | –
CCOC(=O)C1CCCN(C(=O)c2ccc(-c3ccccc3Cl)o2)C1 (stereo not drawn) | inconclusive [inhibitor, single point] | –
CCCCN1CC(=O)N2[C@H](c3ccc(OC)cc3)[C@@H]3C(=O)N(CC)C(=O)[C@@H]3[C@]2(Cc2ccccc2)C1=O | – | inactive: -5.43%
CCn1cc(C2C3=C(CC(C)(C)CC3=O)N(c3ccc(C)cc3)C3=C2C(=O)CC(C)(C)C3)c(C)n1 | – | inactive: -16.9%
O=c1c(Br)c(NCc2ccccc2)cnn1-c1ccc(F)cc1 | – | inactive: 64.3%
Cc1ccc(C(=O)C(C)OC(=O)c2cc(=O)[nH]c3ccccc23)cc1 (stereo not drawn) | inconclusive [inhibitor, single point] | –
COc1ccccc1CSc1ncc(-c2ccc([N+](=O)[O-])cc2)[nH]1 | inconclusive [inhibitor, single point] | –
COc1ccc(C2=NOC(Cn3nc(C(=O)NCc4ccc(C)cc4)cc3-c3ccccc3)C2)cc1 (stereo not drawn) | – | inactive: -2.65%
